Laboratory results published in patent US20250049941A1, “ANTI-CD39 Antibody-Drug Conjugate And Use Thereof” (priority 2021, published 2025).

Key:
[1] = tested on: DB cells; assay: In-vitro killing activity of ADCs against positive tumor cells (CCK-8 cell viability); type: cell-based, human; details: 60-96 h, FIG. 1
Protocol: DB is a human follicular lymphoma cell line which naturally expresses human CD39 on its cell surface, and is used for detecting the in-vitro killing activity effect of anti-CD39 antibody-drug conjugates against positive tumor cells. Each ADC or antibody sample to be tested was diluted to an initial concentration of 6.67 μg/mL with a 1640+10% FBS (Gibco) complete medium, then diluted in a 3-fold gradient to give a total of 5 concentration points, and added into a 96-well cell plate at 100 μL/well, and zero-concentration control wells (i.e., containing complete medium without the ADC or antibody sample to be tested) were set. DB cells (Nanjing Cobioer Biosciences Co., Ltd.) in logarithmic growth phase were collected, diluted to (0.8-1.2)×10^5 cells/mL with a 1640+10% FBS (Gibco) complete medium, and then added into the above 96-well plate at 100 μL/well. The 96-well plate was placed in a CO2 incubator at 37° C. and left to stand for 60-96 h. CCK-8 (Dojindo Laboratories, CK04) was then added at 20 μL/well, and the mixture was incubated for 4-6 h of color development. The OD450 nm readings were then detected by using a multi-mode microplate reader (Molecular Devices). Calculation formula for cell viability (%): ODsample well/ODcontrol well×100%.

[2] = tested on: Mino cells; assay: In-vivo anti-tumor activity of ADCs in the Mino mantle cell lymphoma model; details: Mino cells in CB17/SCID mice; 10 mg/kg, intraperitoneal injection twice a week for 6 times from Day 0; FIG. 2
Description: Mino is a human mantle cell lymphoma cell line which naturally expresses human CD39 on its cell surface, and the cells are inoculated to CB17/SCID mice to establish a mantle cell lymphoma model for detecting the in-vivo anti-tumor effects of anti-CD39 antibody-drug conjugates.
5×10^6 Mino cells (ATCC) (plus 50% Matrigel, Thermo Fisher) were inoculated into the right ventral side of CB17/SCID mice (Shanghai Slac Laboratory Animal Co., Ltd., aged 6-8 weeks). When the tumor volume reached the average value of about 90 mm^3, the mice were divided into groups, and the day of grouping was recorded as Day 0. The blank control group and F314 group were subjected to administration starting on Day 0, with 5 animals in each group, wherein the administration was performed by intraperitoneal injection twice a week for 6 times consecutively. The dose for the F314 group was 10 mg/kg, and the blank control group was injected with an equal volume of PBS. […] The length and width of the tumor were measured with a vernier caliper, and the tumor volume was calculated using the formula TV=(length×width^2)/2. […]

[3] = tested on: SKOV-3 cells; assay: In-vitro killing activity of ADCs against negative tumor cells (CCK-8 cell viability); type: cell-based, human; details: 60-96 h, FIG. 3
Description: Provided are certain methods for preparing antibody-cytotoxic drug conjugates or pharmaceutically acceptable salts or solvates thereof. The ADC of general formula I can be prepared by several routes using organic chemical reactions, conditions and reagents known to those skilled in the art, including: (1) reacting a nucleophilic group of an antibody with a bivalent linker reagent via a covalent bond to form Ab-L, and then reacting Ab-L with a drug module D; and (2) reacting the nucleophilic group of the drug module with the bivalent linker reagent via a covalent bond to form D-L, and then reacting D-L with the nucleophilic group of the antibody.
Each ADC or antibody sample to be tested was diluted to an initial concentration of 6.67 μg/mL with McCoy's 5A+10% FBS complete medium, then diluted in a 3-fold gradient to give a total of 5 concentration points, and added into a 96-well cell plate at 100 μL/well, and zero-concentration control wells (i.e., containing complete medium without the ADC or antibody sample to be tested) were set. SKOV-3 cells (ATCC) in logarithmic growth phase were collected, diluted to (0.8-1.2)×10^5 cells/mL with McCoy's 5A+10% FBS complete medium, and then added into the above 96-well plate at 100 μL/well. […] The OD450 nm readings were then detected by using a multi-mode microplate reader. […]

[4] = tested on: MOLP-8 cells expressing CD39; assay: Affinity activity of ADCs for positive tumor cells (flow cytometry); type: binding, human; details: 4 °C, FIG. 4
Protocol: MOLP-8 is a human multiple myeloma cell line which naturally expresses human CD39 on its cell surface, and is used for detecting the affinity activity and endocytosis activity of anti-CD39 antibody-drug conjugates on positive tumor cells.
Each ADC or antibody sample to be tested was diluted to an initial concentration of 20 μg/mL with 1×PBS, then diluted in a 3-fold gradient to give a total of 7 concentration points, and added into a 96-well V-bottom plate at 50 μL/well, and meanwhile, zero-concentration control wells (i.e., containing complete medium without the ADC or antibody sample to be tested) were set. MOLP-8 cells (DSMZ) were collected, resuspended to 8.0×10^6 cells/mL with 1×PBS, and then added into the above 96-well plate at 50 μL/well. The mixture was well mixed and then incubated at 4° C. for 0.5 h. Washing: 1×PBS was added at 100 μL/well, and the mixture was centrifuged at 2000 rpm for 7 min, followed by removal of the supernatant; 1×PBS was further added at 200 μL/well, and the mixture was well mixed by pipetting and then centrifuged at 2000 rpm for 7 min, followed by removal of the supernatant. […] 1×PBS was added at 200 μL/well to resuspend the cells, and the resuspended cells were analyzed on a flow cytometer.

B1: F314 (antibody)
heavy: QVQLVQSGAEVKKPGASVKVSCKASGYTFTNYWMYWVRQRPGRGLEWIGRIAPSSGATKYNEKFKNRATLTVDTSISTAYMELSRLRSDDTAVYYCARSGIYYDYDWFFDVWGQGTTVTVSSASTKGPSVFPLAPCSRSTSESTAALGCLVKDYFPEPVTVSWNSGALTSGVHTFPAVLQSSGLYSLSSVVTVPSSSLGTKTYTCNVDHKPSNTKVDKRV[omitted - human IgG4 Fc with S228P (EU numbers)]
light: DIQMTQSPSSLSASVGDRVTITCKASQDINKYIGWYQQKPGKAPKLLIHYTSTLQPGVPSRFSGSGSGRDYTFTISSLQPEDIATYYCLQYHALLFTFGQGTKLEIKRTVAAPSVFIFPPSDEQLKSGTASVVCLLNNFYPREAKVQWKVDNALQSGNSQESVTEQDSKDSTYSLSSTLTLSKADYEKHKVYACEVTHQGLSSPVTKSFNRGEC
- in-vitro killing effect against DB tumor cells positive to antigen expression [1]: no direct killing effect
- anti-tumor effect (tumor volume) [2]: did not exhibit anti-tumor effect
- in-vitro killing effect against SKOV-3 tumor cells that do not express human CD39 [3]: no killing effect
- affinity for MOLP-8 cells expressing CD39 [4]: exhibited an affinity
